Measurements from the supplement of paper PMC4604168 (melanoma cell lines).
The list shows a part of the results. Many values rest on one well or one pass, so single values are uncertain.

Tested on: COLO792
Test: cell count relative to DMSO control; melanoma cells; higher = more viable cells
Conditions: library dose: low library concentration; 72 h
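Further: cell number obtained by counting DAPI-stained nuclei in high-throughput microscope images with image analysis software, screen run in 1,536-well plates.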

Row | Structure (SMILES) | cell count [%]
1 | C[C@]12O[C@H](C[C@]1(O)CO)n1c3ccccc3c3c4c(c5c6ccccc6n2c5c31)CNC4=O [Lestaurtinib] + OCc1c[nH]c2ccccc12 [Indole-3-carbinol] (first compound 0.004 µM, partner dose 0.8 µM) | 103
2 | C[C@]12O[C@H](C[C@]1(O)CO)n1c3ccccc3c3c4c(c5c6ccccc6n2c5c31)CNC4=O [Lestaurtinib] + CO[C@H]1C[C@@H]2CC[C@@H](C)[C@@](O)(O2)C(=O)C(=O)N2CCCC[C@H]2C(=O)O[C@H]([C@H](C)C[C@@H]2CC[C@@H](OCCO)[C@H](OC)C2)CC(=O)[C@H](C)/C=C(\C)[C@@H](O)[C@@H](OC)C(=O)[C@H](C)C[C@H](C)/C=C/C=C/C=C/1C [everolimus] (first compound 0.004 µM, partner dose 0.02 µM) | 46.7
3 | C[C@]12O[C@H](C[C@]1(O)CO)n1c3ccccc3c3c4c(c5c6ccccc6n2c5c31)CNC4=O [Lestaurtinib] + Cn1c(=O)n(-c2ccc(C(C)(C)C#N)cc2)c2c3cc(-c4cnc5ccccc5c4)ccc3ncc21 [NVP-BEZ235] (first compound 0.004 µM, partner dose 0.004 µM) | 98.9
4 | C[C@]12O[C@H](C[C@]1(O)CO)n1c3ccccc3c3c4c(c5c6ccccc6n2c5c31)CNC4=O [Lestaurtinib] + Nc1ccn([C@@H]2O[C@H](CO)[C@@H](O)C2(F)F)c(=O)n1 [gemcitabine] (first compound 0.004 µM, partner dose 0.0004 µM) | 96.6
5 | Cn1cc(C2=C(c3cn(C4CCN(Cc5ccccn5)CC4)c4ccccc34)C(=O)NC2=O)c2ccccc21 [Enzastaurin] + CO[C@H]1C[C@@H]2CC[C@@H](C)[C@@](O)(O2)C(=O)C(=O)N2CCCC[C@H]2C(=O)O[C@H]([C@H](C)C[C@@H]2CC[C@@H](OCCO)[C@H](OC)C2)CC(=O)[C@H](C)/C=C(\C)[C@@H](O)[C@@H](OC)C(=O)[C@H](C)C[C@H](C)/C=C/C=C/C=C/1C [everolimus] (first compound 0.8 µM, partner dose 0.02 µM) | 57.8
6 | C[C@]12O[C@H](C[C@]1(O)CO)n1c3ccccc3c3c4c(c5c6ccccc6n2c5c31)CNC4=O [Lestaurtinib] + Nc1cccc2c1CN(C1CCC(=O)NC1=O)C2=O [lenalidomide] (first compound 0.004 µM, partner dose 1 µM) | 83.3
7 | C[C@]12O[C@H](C[C@]1(O)CO)n1c3ccccc3c3c4c(c5c6ccccc6n2c5c31)CNC4=O [Lestaurtinib] + CN(c1ncccc1CNc1nc(Nc2ccc3c(c2)CC(=O)N3)ncc1C(F)(F)F)S(C)(=O)=O [PF562271] (first compound 0.004 µM, partner dose 0.08 µM) | 77.3
8 | C[C@]12O[C@H](C[C@]1(O)CO)n1c3ccccc3c3c4c(c5c6ccccc6n2c5c31)CNC4=O [Lestaurtinib] + CC(=O)O[C@@]12CO[C@@H]1C[C@H](O)[C@@]1(C)C(=O)[C@H](O)C3=C(C)[C@@H](OC(=O)[C@H](O)[C@@H](NC(=O)OC(C)(C)C)c4ccccc4)C[C@@](O)([C@@H](OC(=O)c4ccccc4)[C@H]21)C3(C)C [Docetaxel] (first compound 0.004 µM, partner dose 0.0001 µM) | 55.3
9 | C[As](C)SC[C@H](NC(=O)CC[C@H](N)C(=O)O)C(=O)NCC(=O)O [Darinaparsin] + O=C(Nc1ccccc1)c1cc([N+](=O)[O-])ccc1Cl [GW9662] (first compound 0.4 µM, partner dose 2 µM) | 112
10 | C[As](C)SC[C@H](NC(=O)CC[C@H](N)C(=O)O)C(=O)NCC(=O)O [Darinaparsin] + Cc1cc(SCc2sc(-c3ccc(C(F)(F)F)c(F)c3)nc2C)ccc1OCC(=O)O [GW0742] (first compound 0.4 µM, partner dose 2 µM) | 97.6
11 | C[C@]12O[C@H](C[C@]1(O)CO)n1c3ccccc3c3c4c(c5c6ccccc6n2c5c31)CNC4=O [Lestaurtinib] + CCCS(=O)(=O)Nc1ccc(F)c(C(=O)c2c[nH]c3ncc(Cl)cc23)c1F [PLX4720] (first compound 0.004 µM, partner dose 0.08 µM) | 101
12 | C[C@]12O[C@H](C[C@]1(O)CO)n1c3ccccc3c3c4c(c5c6ccccc6n2c5c31)CNC4=O [Lestaurtinib] + O=C(O)[C@@H]1[O][Sb](=[O])([O][Sb]2(=[O])[O][C@H]([C@H](O)CO)[C@H](O)[C@H](C(=O)O)[O]2)[O][C@H]([C@H](O)CO)[C@@H]1O [stibogluconate] (first compound 0.004 µM, partner dose 2 µM) | 114
13 | C[C@]12O[C@H](C[C@]1(O)CO)n1c3ccccc3c3c4c(c5c6ccccc6n2c5c31)CNC4=O [Lestaurtinib] + O=C(O)c1ccc2c(c1)nc(Nc1cccc(Cl)c1)c1ccncc12 [CX4945] (first compound 0.004 µM, partner dose 0.4 µM) | 85.8
14 | C[As](C)SC[C@H](NC(=O)CC[C@H](N)C(=O)O)C(=O)NCC(=O)O [Darinaparsin] + O=C1NC(=O)/C(=C/c2ccc(-c3ccc(F)cc3O)o2)S1 [AS252424] (first compound 0.4 µM, partner dose 1 µM) | 95.8
15 | C[C@]12O[C@H](C[C@]1(O)CO)n1c3ccccc3c3c4c(c5c6ccccc6n2c5c31)CNC4=O [Lestaurtinib] + CC(C)C[C@H](NC(=O)[C@H](Cc1ccccc1)NC(=O)c1cnccn1)B(O)O [Bortezomib] (first compound 0.004 µM, partner dose 0.001 µM) | 95.7
16 | C[C@]12O[C@H](C[C@]1(O)CO)n1c3ccccc3c3c4c(c5c6ccccc6n2c5c31)CNC4=O [Lestaurtinib] + N.N.[Cl][Pt][Cl] [cisplatin] (first compound 0.004 µM, partner dose 1.6 µM) | 82.5
17 | C[C@]12O[C@H](C[C@]1(O)CO)n1c3ccccc3c3c4c(c5c6ccccc6n2c5c31)CNC4=O [Lestaurtinib] + NC1(c2ccc(-c3nc4ccn5c(=O)[nH]nc5c4cc3-c3ccccc3)cc2)CCC1 [MK2206] (first compound 0.004 µM, partner dose 0.4 µM) | 52.1
18 | C[C@]12O[C@H](C[C@]1(O)CO)n1c3ccccc3c3c4c(c5c6ccccc6n2c5c31)CNC4=O [Lestaurtinib] + C[C@]1(O)C[C@@H](c2nc(-c3ccc4ccc(-c5ccccc5)nc4c3)c3c(N)nccn32)C1 [OSI906] (first compound 0.004 µM, partner dose 0.4 µM) | 90.7
19 | C[C@]12O[C@H](C[C@]1(O)CO)n1c3ccccc3c3c4c(c5c6ccccc6n2c5c31)CNC4=O [Lestaurtinib] + C=C(c1ccc(C(=O)O)cc1)c1cc2c(cc1C)C(C)(C)CCC2(C)C [Bexarotene] (first compound 0.004 µM, partner dose 2 µM) | 84.4
20 | C[C@]12O[C@H](C[C@]1(O)CO)n1c3ccccc3c3c4c(c5c6ccccc6n2c5c31)CNC4=O [Lestaurtinib] + CN1CCN(c2ccc3nc(-c4c(N)c5c(F)cccc5[nH]c4=O)[nH]c3c2)CC1 [Dovitinib] (first compound 0.004 µM, partner dose 0.1 µM) | 74.2
21 | C[C@]12O[C@H](C[C@]1(O)CO)n1c3ccccc3c3c4c(c5c6ccccc6n2c5c31)CNC4=O [Lestaurtinib] + CCCCCCCCc1ccc(CCC(N)(CO)CO)cc1 [fingolimod] (first compound 0.004 µM, partner dose 2 µM) | 96.1
22 | C[C@]12O[C@H](C[C@]1(O)CO)n1c3ccccc3c3c4c(c5c6ccccc6n2c5c31)CNC4=O [Lestaurtinib] + CNC(=O)c1cc(Oc2ccc(NC(=O)Nc3ccc(Cl)c(C(F)(F)F)c3)cc2)ccn1 [sorafenib] (first compound 0.004 µM, partner dose 0.4 µM) | 110
23 | N.N.[Cl][Pt][Cl] [cisplatin] + CO[C@H]1C[C@@H]2CC[C@@H](C)[C@@](O)(O2)C(=O)C(=O)N2CCCC[C@H]2C(=O)O[C@H]([C@H](C)C[C@@H]2CC[C@@H](OCCO)[C@H](OC)C2)CC(=O)[C@H](C)/C=C(\C)[C@@H](O)[C@@H](OC)C(=O)[C@H](C)C[C@H](C)/C=C/C=C/C=C/1C [everolimus] (first compound 1.6 µM, partner dose 0.02 µM) | 54
24 | C[C@]12O[C@H](C[C@]1(O)CO)n1c3ccccc3c3c4c(c5c6ccccc6n2c5c31)CNC4=O [Lestaurtinib] + C=CCNC1=C2C[C@@H](C)C[C@H](OC)[C@H](O)[C@@H](C)/C=C(\C)[C@H](OC(N)=O)[C@@H](OC)/C=C\C=C(/C)C(=O)NC(=CC1=O)C2=O [Tanespimycin] (first compound 0.004 µM, partner dose 0.002 µM) | 93.3
25 | C[C@]12O[C@H](C[C@]1(O)CO)n1c3ccccc3c3c4c(c5c6ccccc6n2c5c31)CNC4=O [Lestaurtinib] + COc1ccc(Cl)c(Nc2nc3ccccc3nc2NS(=O)(=O)c2cccc(NC(=O)C(C)(C)N)c2)c1 [XL147] (first compound 0.004 µM, partner dose 0.8 µM) | 105
